Experimental data taken from PubChem BioAssay AID485344 (National Center for Advancing Translational Sciences (NCATS), 2010).
Values joined by “and” are separate entries in the source; they are usually repeats but may differ in a detail not shown here. Equal values may be shown once. The whole screen tested about 340,000 compounds, of which about 6,900 (2%) were called active. No stated cut-off is given here; in the data, active means inhibition above about 30%; inactive means below that, where a call was filed. Only a part is listed here, and it is no random draw. The source gives no active or inactive call for entries shown without one.

target: D(2) dopamine receptor (Homo sapiens) (UniProt P14416); assay: HTS Assay for Allosteric Antagonists of the Human D2 Dopamine Receptor: Primary Screen for Antagonists; settings: HEK293 TREx D2 cells, calcium flux, dopamine EC80; at 10 µM; stronger effect = higher value; further: 0% is about no effect
Procedure, shortened: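 Compounds are added to dye-loaded, induced HEK293 T-REx cells coupled to calcium release via D2; after a 3 min kinetic read an EC80 dopamine stimulus is given and fluorescence is recorded for 3 more min.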

Chain of UniProt P14416 (P14416 whole entry, looked up): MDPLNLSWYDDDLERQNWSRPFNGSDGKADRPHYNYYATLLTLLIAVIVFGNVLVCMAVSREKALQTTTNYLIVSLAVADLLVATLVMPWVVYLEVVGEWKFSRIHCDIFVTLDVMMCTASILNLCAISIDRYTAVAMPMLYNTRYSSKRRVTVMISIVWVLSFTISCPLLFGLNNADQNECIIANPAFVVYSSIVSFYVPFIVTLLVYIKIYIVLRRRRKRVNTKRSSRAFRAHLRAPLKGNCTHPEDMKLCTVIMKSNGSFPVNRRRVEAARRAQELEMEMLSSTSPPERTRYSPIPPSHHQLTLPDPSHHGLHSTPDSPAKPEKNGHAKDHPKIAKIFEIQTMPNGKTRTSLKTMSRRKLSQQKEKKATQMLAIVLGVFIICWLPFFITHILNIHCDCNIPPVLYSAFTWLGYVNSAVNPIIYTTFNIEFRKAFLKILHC

SMILES	inhibition
O=C(Nc1ccccc1)c1ccc2c(O)c(S(=O)(=O)c3ccc(Cl)cc3)c(=O)[nH]c2c1	-8.79%
COc1ccccc1C(=O)Nc1onc2c1CCCC2	13.1%
CCOC(=O)c1ccc(NC(=O)CN2Cc3ccccc3C2=O)cc1	2.15%
Cc1cc2[nH]c(=O)c(=O)[nH]c2cc1S(=O)(=O)Nc1ccc(OC(F)(F)F)cc1	7.48%
Cc1cccc(OC(=O)c2cc(-c3ccc4c(c3)OCCO4)on2)c1C	-14.1%
Cc1cccc(N2CCN(c3ccc(NC(=O)c4ccccc4)cc3C(=O)O)CC2C)c1 (stereo not given)	14%
COc1ccc(-c2noc(CSc3nc(N)cc(=O)[nH]3)n2)cc1	0.423%
Cc1cccc(NC(=O)c2ccc3nc(CCc4ccccc4)oc3c2)c1C	-7.41%
COc1cccc(C2/C(=C(\O)c3ccc4c(c3)OCCO4)C(=O)C(=O)N2Cc2cccnc2)c1 (stereo not given)	active: 30.9%
CSc1ncc(Cl)c(C(=O)Nc2c(C(=O)c3ccc(C)c(F)c3)oc3ccccc23)n1	0.0341%
COc1cccc(NC(=O)CCc2nc(-c3cccs3)no2)c1	-8.31%
CCOc1ccc(C2C(=O)N(C3CCCCC3)CC(=O)N2CCC2=CCCCC2)cc1OC (stereo not given)	4.57%
CCOc1ccc(C(=O)c2cn(CC(=O)Nc3ccc(F)c(F)c3)c3cc4c(cc3c2=O)OCCO4)cc1	2.48%
C/C=C/c1ccc(OCCCCN2CCC(C)CC2)c(OC)c1	active: 45.6%
Cc1ccc(-n2c(-c3cccc(C)c3)nc3c(cnn3-c3ccccc3)c2=O)cc1	8.53%
Cn1c(=O)oc2cc(S(=O)(=O)N3CCCC(C(=O)N4CCN(c5ccc(F)cc5)CC4)C3)ccc21 (stereo not given)	-5.63%
CCc1nn2c(=O)cc(COC(=O)c3ccccc3NC(=O)c3ccc(C(C)(C)C)cc3)nc2s1	12.6%
Cc1ccccc1OCC(=O)Nc1nnc(S(=O)(=O)N2CCCCCC2)s1	13.7%
CC(Oc1ccc(Br)cc1)C(=O)N(Cc1nc(-c2ccccc2)no1)C(C)C (stereo not given)	5.36%
CSc1cccc(NC(=O)C2CCCN(S(=O)(=O)c3ccc4c(c3)CCCN4C(C)=O)C2)c1 (stereo not given)	11.2%
COc1ccccc1N1CCN(Cc2cc3c(cc2O)OCO3)CC1	active: 98.4%
S=C(Nc1ccccc1)NC1CCN(Cc2ccccc2)CC1	active: 92.1%
CCN(C(=O)COc1ccccc1)c1nnc(-c2cccnc2)s1	active: 41.5%
Cc1ccc(C2c3[nH]c4ccccc4c3CCN2C(=O)CSc2ccccc2)cc1 (stereo not given)	-6.29%

SMILES	inhibition
COc1ccc(-c2nc(CSc3nnc(C)n4c3cc3sccc34)c(C)o2)cc1	10.3%
O=C(Nc1c(C(=O)N2CCN(c3ccccc3F)CC2)oc2ccccc12)c1ccc(Br)o1	22.9%
Oc1ccccc1-c1nc2ccc(Cl)cn2c1Nc1ccc2c(c1)OCCO2	5.03%
CCS(=O)(=O)N1CCc2cc(C(=O)Nc3cccc(NC(C)=O)c3)ccc21	7.95%
COc1ccc(-c2ccc(=O)n(CC(=O)Nc3ccccc3C(F)(F)F)n2)cc1	-11.8%
CCc1ccc(CNC(=O)c2ccc(-n3c(C)cc4c3CCC(C)C4)cc2)cc1 (stereo not given)	5.34%
COc1cc(Br)c(C2CC(=O)Nc3cc4c(cc32)OCCO4)cc1OC (stereo not given)	-3.07%
Cc1ccc(S(=O)(=O)Nc2ccc3c(c2)CCCN3C(=O)c2cccs2)cc1C	11.3%
Cc1cccc(NC(=O)C(Cc2ccccc2)N2Cc3ccccc3C2=O)c1C (stereo not given)	-9.25%
CCc1ccc(NC(=O)c2ccc(F)c(S(=O)(=O)N3CCc4ccccc4C3)c2)cc1	-1.42%
Cc1c(Cl)cccc1NC(=O)CC1NCCNC1=O (stereo not given)	active: 33.6%
CCc1nn(CC(=O)NCCN(CC(C)C)CC(C)C)c(=O)c2cc3sc(C)cc3n12	8.78%
Cc1cc(C)cc(NC(=O)C2CCN(c3cnccn3)CC2)c1	active: 33%
COc1ccc(CNC(=O)Cn2c(=O)n3nc(-c4cccc(F)c4)nc3c3ccccc32)cc1OC	19%
Cc1cc(C)c(C#N)c(N2CCN(CCOc3ccc(Cl)cc3)CC2)n1	active: 121%
COc1ccc(CNC(=O)C2=Cc3cccc(OC)c3OC2)cc1OC	15.8%
COc1ccc(OC)c(NS(=O)(=O)c2ccc3c(c2)CCCN3C(=O)C2CCC2)c1	19.9%
CCc1cc(=O)oc2c(C)c3c(cc12)CN(CCc1ccccc1)CO3	-17.9%
O=C(Nc1ccc(F)cc1F)c1cc(CN2CCOCC2)on1	3.56%
CNC(=O)c1ccc(-c2sc3nc(N4CCOCC4)c4c(c3c2N)CC(C)(C)OC4)o1	active: 40.6%
CCc1cc2c(cc3c(=O)n(CC(=O)NC(C)C)nc(CC)n32)s1	-8.63%
COc1ccc(CNC(=O)CSCc2ccc(C)cc2)c(OC)c1	3.05%
Cc1ccc(NS(=O)(=O)c2ccc(-c3cc(C)no3)cc2)c(C)c1	5.96%
CCC1CCCCN1CCCNC(=O)c1sc2nc(C)cc(C)c2c1-n1cccc1 (stereo not given)	-0.97%

SMILES	inhibition
CCCN(CCC)CCCNC(=O)c1sc2nc3n(c(=O)c2c1C)CCC3	-6.28%
Cc1nn(CC(=O)Nc2ccc(Br)cc2F)c(=O)c2cccn12	active: 47.2%
O=C(NCC(c1ccc2c(c1)OCO2)N1CCOCC1)C(=O)Nc1ccc(Cl)cc1 (stereo not given)	-25.5%
Cc1cc(NC(=O)Nc2ccccc2)n(-c2ccccc2)n1	active: 31.4%
Cc1ccccc1OCCSc1nnc(-c2ccc([N+](=O)[O-])cc2)o1	-15.9%
Oc1cccc(-c2nc(-c3cccs3)c(-c3cccs3)[nH]2)c1	25.7%
Cc1cccc(OC(=O)c2nc(SCc3ccccc3F)ncc2Cl)c1	19.3%
Cc1nn(C)c(C(=O)NCc2ccc(Cl)cc2)c1Cl	active: 44.4%
CCOC(=O)c1ccc(NC(=O)Cn2cc(C(=O)c3cccs3)c3ccccc32)cc1	6.56%
Cc1ccc(Nc2nc3c(S(=O)(=O)c4ccccc4)nnn3c3ccc(Cl)cc23)c(C)c1	0.971%
COc1cc2nc(Nc3ccc(C)c(C)c3)nc(N)c2cc1OC	0.751% and active: 30.4%
Cc1nc2ccn(Cc3cccs3)c(=O)c2cc1C(=O)NCc1ccc(Cl)cc1	-8.7%
CC(CC(=O)NCc1ccc(Cl)cc1Cl)CC1=NS(=O)(=O)c2ccccc2N1 (stereo not given)	-7.04%
COc1ccc(CCNC(=O)c2cc(=O)c3c(C)cc(C)cc3o2)cc1OC	1.11%
COc1cc2c(cc1OC)n(CC(=O)Nc1ccccc1)c(=O)n1nc(-c3ccccc3)nc21	11.3%
COc1ccccc1NC(=O)C1=C(C)Nc2c(C(=O)Nc3cccc(C)c3)cnn2C1c1ccccc1C (stereo not given)	8.61%
O=C(CCn1c(=O)c2cccn2c2cccnc21)NCc1ccc(Cl)cc1	9.22%
COC(=O)c1ccc(NC(=O)C(=O)NCCc2sc3nc(-c4ccc(OC)cc4)nn3c2C)cc1	7.48%
CCN(CC)C(=O)Cn1c(=O)n(CC(=O)N2CCCCC2)c(=O)c2sccc21	active: 33%
Cc1ccc(/C=C/c2nc3ccccc3n2S(=O)(=O)c2cccc(Cl)c2)cc1	-12%
CCOc1ccc(C(=O)NNC(=O)CN2C(=O)NC3(CCCC3)C2=O)cc1	active: 42.1%
CN1c2ccccc2C(C)(C)C12C=Nc1c(ccc3ccccc13)O2 (stereo not given)	active: 34.4%
CCN(CC)C(=O)C1CCN(c2cc(C)nc3c(-c4ccc(OC)c(OC)c4)c(C)nn23)CC1	-6.26%
Cn1c(C(=O)N2CCCC(C(=O)N3CCN(c4ccccc4)CC3)C2)cc2sccc21 (stereo not given)	17.6%

SMILES	inhibition
CCCCNC(=O)CSC1=Nc2ccccc2C2=NC(CCC(=O)NCc3ccccc3OC)C(=O)N12 (stereo not given)	18.4%
CCc1ccc(NC(=O)CSc2cn(CC(=O)N3CCOCC3)c3ccccc23)cc1	0.892%
COc1ccc(NC(=O)Cn2c(=O)n(-c3ccc(C)c(C)c3)c(=O)c3c4c(sc32)CCCCC4)cc1Cl	-1.64%
CCc1ccc(CNc2ncnc3onc(-c4ccc(Cl)cc4)c23)cc1	17.4%
CCCCOC(=O)c1c(C)oc2ccc(NS(=O)(=O)c3ccc(F)cc3C)cc12	8.28%
CCOc1ccc(CN(C(=O)c2cc(=O)c3cc(Cl)ccc3o2)C2CCS(=O)(=O)C2)cc1 (stereo not given)	8.49%
COc1ccc(-c2cc(C(F)(F)F)n3nc(C(=O)Nc4sc5c(c4C(=O)OC(C)C)CCCC5)cc3n2)cc1OC	-0.065%
COc1ccc(N2CCN(C(CNC(=O)c3cccc(OC)c3)c3cccnc3)CC2)cc1 (stereo not given)	-15.1%
O=C(CSc1oc(-c2ccc(F)cc2)nc1S(=O)(=O)c1ccc(Cl)cc1)c1ccccc1	-8.31%
COc1cccc(-c2cn3c(n2)sc2cc(C(=O)NCCC4=CCCCC4)ccc23)c1	-27.7%
Cc1ccc(CN2CCN(c3ncccn3)CC2)o1	active: 85.7%
O=[N+]([O-])c1cccc(-c2ccc(CN3CCN(c4ccccc4)CC3)o2)c1	active: 46.8%
CC(=O)c1ccccc1OCCCCN1CCCCC1	active: 58.5%
O=C(c1ccc2c(c1)N(Cc1cccc(Cl)c1)C(=O)c1ccccc1S2(=O)=O)N1CCCCCC1	2.12%
Cc1ccc(NC(=O)C2CCN(C(=O)c3cnn(-c4ccccc4)c3-n3cccc3)CC2)cc1C	-7.99%
O=C(CN1CCCN(Cc2cccc(F)c2)S1(=O)=O)Nc1ccc2c(c1)OCCO2	10.9%
Cc1cccc(-c2nc(C)c(CCNC(=O)c3cccs3)s2)c1	10.9%
O=C(NCC(c1cccnc1)N1CCc2ccccc2C1)C(=O)Nc1ccc(F)cc1F (stereo not given)	16.2%
CCS(=O)(=O)c1ncc(Cl)c(C(=O)Nc2c(C(=O)c3ccc(C)cc3)oc3ccccc23)n1	6.58%
Cc1ccc(-n2ncc(C(=O)N3CCN(C(=O)c4ccco4)CC3)c2C2CCN(C(=O)OC(C)(C)C)CC2)cc1	-6.6%
COC(=O)c1nnn(-c2ccc(Cl)cc2)c1C(=O)OC	-3.26%
O=C(CCS(=O)(=O)c1nc(-c2ccc3c(c2)OCO3)cc(C(F)(F)F)n1)Nc1ccc(F)cc1F	-10.9%
C=C(C)Cn1c(SCC(=O)Nc2cccc(C)c2)nc2sc3c(c2c1=O)CCCC3	25.2%
